# This sample is rich in variants without activity.
# B1: TPR 5TU (parent)
# chain: GGAUCUUCUCGAUCUAACAAAAAAGACAAAUCUGCCACAAAGCUUGAGAGCAUCUUCGGAUGCAGAGGCGGCAGCCUUCGGUGGCGCGAUAGCGCCAACGUUCUCAACUAUGACACGCAAAACGCGUGCUCCGUUGAAUGGAGUUUAUCAUG
# Variants of: B1
# Experiment: polymerase ribozyme fitness, log enrichment relative to wild type (log ratio); higher = more active; in vitro selection for triplet polymerase activity
# Outline: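 Only genotypes with ≥10 input reads and ≥1 read per output were kept after Illumina sequencing of input and output libraries. These libraries were PCR-built, transcribed mutants of each subunit of a heterodimeric triplet polymerase ribozyme, each put through one triplicate in vitro selection round with frozen incubation at −7 °C, gel excision of extended constructs, streptavidin-bead capture and RT-PCR. Fitness is a logarithmic ratio of genotype enrichment to wild-type enrichment, from inverse-variance-weighted replicate averages, with the logarithm in base 2.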
row,Variant,polymerase ribozyme fitness (log ratio)
1,U4G U13G A39C A52G G86A C114A A115G C123A G141A,≤ -4.2
2,U4G C35A A66G G74A G92A C116A G128U,≤ -4.2
3,U4G A12U A16C A23C C76G U82C C108A G143C U151G,≤ -4.2
4,C5A C27U U33G C79A,≤ -4.2
5,U4G A12U U15G A21C C32U G86C U90G G117U,≤ -4.2
6,U4C C10G C27G G58U C75U G80C G84A C125A,≤ -4.2
7,U4C C51U U56A G68A G94A C96A U101C,≤ -4.2
8,C5A A16C C72A G83C G84C C85A A121C C125G G136A,≤ -4.2
9,U4A U9G G48A U56A C72U C93U A115G,≤ -4.2
10,U4A G62U A64C C75A G94A A97G A138G G141U,≤ -4.2
11,C5A C27U U55G G83A G92U U148A,≤ -4.2
12,U4C A49U G94A A106G C123U,-1.94
13,C5A U9C C10G A26U U90G A137G A142U,≤ -4.2
14,U4C A73G U90G,≤ -4.2
15,U4G A22C A37U A40C A137C,≤ -4.2
16,U4G C8A C14G G68C,≤ -4.2
17,C5G A28U A29G A49C G50U C96U C123A G152U,≤ -4.2
18,C5A C32U G74C A91G A142G,≤ -4.2
19,C5A A39C G83A U102C A106U G124U U127G C131G,≤ -4.2
20,C5A G11A G84A C95A C103U C116U,-1.5
21,U4G A29U G59C G62A A64G A66U C95G,≤ -4.2

row,Variant,polymerase ribozyme fitness (log ratio)
1,C5A A19U A23C C57A G68C C75U U77A G86U G143C,≤ -4.2
2,U4A U6C C10A A16C C27G G34U G65C G86C G112A G126U U135A,≤ -4.2
3,U4G A23C G42A A66G C93A A98G A137C,≤ -4.2
4,U4A U9A A20C C51U A52G U55C C93U A107G C125A G141U,≤ -4.2
5,U4C G11U U53C,-2.27
6,C5A A40U G70U C76G U146G,≤ -4.2
7,U4G U31A C54U G86C G92U U148G,≤ -4.2
8,C5A A52U U55A G88U C129U A142C U146A,≤ -4.2
9,U4G A16C U44A U55G G65C C75U C118U C132A G143C,≤ -4.2
10,C5A U6G G67C G68A C87A U101A A106U C108G C149G,≤ -4.2
11,U4C A26G U61A A91G C99A G124C C125A,≤ -4.2
12,C5A C14G A19G C36A U102G C132G,≤ -4.2
13,U4G U15G A30G A41U G46U C69G C76U C93G G143C,≤ -4.2
14,U4C A49C C85A A106G C108U G126U,≤ -4.2
15,C5A C57U G59C C96G U101G,-0.41
16,U4A U9A A12C A17C A30U G86A A89G,≤ -4.2
17,C5G A17C A26U A37C A52C C93A A106G,≤ -4.2
18,U4G U7C C10A C14G U82A C95A A98G U102C C103G C118U A137C,≤ -4.2
19,C5G A39U C57A G59U G83U C103G C116U,≤ -4.2
20,C5A A21G A41C A64U C85A C96U A110U G117U,≤ -4.2
21,C5A C10A C93A C105A,≤ -4.2

row,Variant,polymerase ribozyme fitness (log ratio)
1,U4C G42U G92A A107G C125U A142U,≤ -4.2
2,C5G A26G A41U C43G G50U C54U,≤ -4.2
3,C5A A26U C99A C125G,≤ -4.2
4,C5A A17G A21C C32U G50U A98U C108U,≤ -4.2
5,C5A C8G A30U U56A A91U G128A A137G,≤ -4.2
6,U4G U33C G67U C69A C93U,≤ -4.2
7,C5G A16G A52C G81A G84U U101G C105A C118U,≤ -4.2
8,C5A A30U C51G U61A G86A C103G C129U G136U,≤ -4.2
9,U4C A20C G25U A47G U55A C79G C93U,≤ -4.2
10,C5A C54U A73G A119G G136A,-0.371
11,C5A C27G C54U G71A G84A U135G U144G,≤ -4.2
12,U4C U9A U15A A22U U33G C36A G83A U127G,≤ -4.2
13,U4C U9G C108A U144G,≤ -4.2
14,C5G A17G G34C C36U G59A C85U A91C A97C U109C,≤ -4.2
15,U4C C10A U15G G62C A64U G80A C93A C116A U127G C131U G141U U145A,≤ -4.2
16,U4C C87A A119U G141C,≤ -4.2
17,U4G A24C A28U G59A G68C C93U A138U,≤ -4.2
18,C5A A21C C35U G74C G128U U139G,≤ -4.2
19,U4C A20U A29U G70U C99G C108G,≤ -4.2
20,U4G A21C G58U G88C G112C A119U U151G,≤ -4.2
21,C5A A20G A49C C85U G88C A115G A120G A137G,≤ -4.2

row,Variant,polymerase ribozyme fitness (log ratio)
1,C5G A30G C36U C75G C95G U127A,≤ -4.2
2,U4C U77A C105A A122U,≤ -4.2
3,U4G U15G A29U U55A C93G U145G,≤ -4.2
4,U4G C5G A16C G25U A28G A52C C54U G94C U104G G128C,≤ -4.2
5,U4C U7A A23C A49G C96G A107C U111G,≤ -4.2
6,C5G A24G C75U U109A A138G A147C,≤ -4.2
7,C5A C10U A28U A39U U45G G68A A73G G84A,≤ -4.2
8,C5A A24G A28G A29U G67U G92A C108G C116A U127G G140U U145G,≤ -4.2
9,U4C C51U C96A A121C U134A,-3.3
10,U4C G58A G83A C85U,-1.97
11,U4G C27U A29C U53A C54U G88A C125A,≤ -4.2
12,C5G A19G A24C A40U U55A G83U G86U A115G G140U,≤ -4.2
13,C5G A30U G59A C87G C108U U148A,≤ -4.2
14,U4G A26C C35U U55A C85A,≤ -4.2
15,C5A G46C A66U C93U A122G,≤ -4.2
16,C5A A30C C87A,≤ -4.2
17,C5A C75G C79A U82G G86A A106C C149G,≤ -4.2
18,C5G A28C A49C G83A A97C C99A,≤ -4.2
19,U4G A40G C51U C85A G136U,≤ -4.2
20,U4C C18U A28C C85U A120U G124C,≤ -4.2

# — the RNAGym collection of RNA variant scans (doi:10.1073/pnas.2313332121)
